Reference: US20250297021A1 (SHANDONG SIMCERE BIOPHARMACEUTICAL CO NO 1, published 2025)

T1: BCMA expressed endogenously on U266 and H929 cells (UniProt Q02223 1-184, limits assumed)
T1 construct: whole, on cells; The cell line (U266 or H929) is named under assay in each row; also called B cell maturation antigen; CD269
T1 sequence (looked up): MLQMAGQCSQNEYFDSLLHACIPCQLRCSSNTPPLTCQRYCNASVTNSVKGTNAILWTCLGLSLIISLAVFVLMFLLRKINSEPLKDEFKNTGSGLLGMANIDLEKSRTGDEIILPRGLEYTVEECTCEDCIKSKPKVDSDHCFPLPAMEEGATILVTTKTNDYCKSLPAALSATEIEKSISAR


Columns and labels:
[1] = target: T1, BCMA expressed endogenously on U266 and …; experiment: FACS on U266 cells
Procedure: (§1) The desired cells were scale-up cultured in T-75 cell culture flasks to the logarithmic growth phase, and the cells were pipetted into a single cell suspension. After the cells were counted, the cells were centrifuged and the cell pellet was resuspended in FACS buffer (PBS+2% fetal calf serum) to 2×10⁶ cells per ml, and the suspension was added to the 96-well FACS reaction plate at 50 μl per well, then the sample to be tested of the chimeric antibody was added at 50 μl per well and the mixture was incubated at 4° C. for 1 h. The obtained mixture was centrifuged and washed 3 times with a PBS buffer. […] The obtained mixture was centrifuged and washed 3 times with a PBS buffer. 100 μl of the mixture was taken for detection and result analysis by FACS (FACS Canto™, purchased from BD Company). Data analysis was performed by software (FlowJo) to obtain the mean fluorescence intensity (MFI) of the cells. Then, a software (GraphPad Prism8) was used for analysis, data fitting and EC50 calculation. The results are shown in Table 10 and FIGS. 10A-10B, FIGS. 11A-11B, and FIGS. 12A-12B. All seven chimeric antibodies bind to three types of BCMA-expressing endogenous cells.
(§2) The specific method was the same as that in Example 5 (C). First, the binding of humanized antibodies to U266 cells was detected. Based on the results, some humanized antibodies were selected and tested for binding to H929 cells. The remaining humanized antibodies were not tested for binding to H929 cells by FACS (indicated by “/” in the table). All humanized antibodies bind to U266 cells, and all humanized antibodies that bind to the H929 cell in the test bind to H929 cells.

[2] = target: T1, BCMA expressed endogenously on U266 and …; experiment: FACS on H929 cells
Procedure: as §1, §2

| Binder | EC50 [1] [nM] | Maximum mean fluorescence intensity [1] | EC50 [2] [nM] | Maximum mean fluorescence intensity [2] |
| --- | --- | --- | --- | --- |
| BCMA-06 VL2aVH2 (Fc fusion) scFv: EVKLVESGGGLVQPGGSLRLSCAASGIDFSRYWMSWVRQAPGKGLEWVAEINPDSSTINYAPSLKDRFTISRDNAKNSLYLQMNSLRAEDTAVYYCAIFYYANYYAMDYWGQGTTVTVSSGGGGSGGGGSGGGGSDIVMTQSPDSLAVSLGERATINCKASQNVDTNVAWYQQKPGQSPKALIYSASYRFSGVPDRFSGSGSGTDFTLTISSLQAEDVAVYYCQQYNAYPFTFGQGTKLEIK[human IgG1 Fc with C220S (EU numbers) not spelt out] | 14.4 | 993 | 29.6 | 17200 |
| BCMA-06 VL2aVH1 (Fc fusion) scFv: EVQLVESGGGLVQPGGSLRLSCAASGIDFSRYWMSWVRQAPGKGLEWVAEINPDSSTINYAPSLKDRFTISRDNAKNSLYLQMNSLRAEDTAVYYCAIFYYANYYAMDYWGQGTTVTVSSGGGGSGGGGSGGGGSDIVMTQSPDSLAVSLGERATINCKASQNVDTNVAWYQQKPGQSPKALIYSASYRFSGVPDRFSGSGSGTDFTLTISSLQAEDVAVYYCQQYNAYPFTFGQGTKLEIK[human IgG1 Fc with C220S (EU numbers) not spelt out] | 47.1 | 1300 | 32.8 | 16800 |
| BCMA-06 VL2aVH3 (Fc fusion) scFv: EVKLLQSGGGLVQPGGSLRLSCAASGIDFSRYWMSWVRQAPGKGLEWVAEINPDSSTINYAPSLKDRFTISRDNAKNSLYLQMNSLRAEDTAVYYCAIFYYANYYAMDYWGQGTTVTVSSGGGGSGGGGSGGGGSDIVMTQSPDSLAVSLGERATINCKASQNVDTNVAWYQQKPGQSPKALIYSASYRFSGVPDRFSGSGSGTDFTLTISSLQAEDVAVYYCQQYNAYPFTFGQGTKLEIK[human IgG1 Fc with C220S (EU numbers) not spelt out] | 67.6 | 2570 | 17.8 | 20800 |
